# Experimental data from the supplement of paper PMC8728848.
# The list shows a part of the results.
# B1: GS7807H-bfa-490-18-490 (Bacteroides fragilis) (protein)
# chain: GNLEEMNIDPDNATQTHPKLLLTQICMNAFKRGTDGMYATKKVIQADGESADQYYKWTRGSFGYYDNLRNVQKMGEEAERVNAPVYTALTKFFRAYYFYELTLRFGDIPYSQALKGEKEEIYTPEYDAQEDVFAGILQELREADEILANDASVIDGDIIYNGNSTQWRKLINSFRLKVLMTLSNHTTVGNINIASEFKNIATNSPLMNSLADNGQLVYLDQQGNRYPQFNAQWSGYYMDDTFIQRMRERRDPRLFIFSAQTNKGKTEGKPIDDFSSYEGGDPAAPYSDAIIKVSEGTISPINDRFRTDPIVEPTMLMGYAELQQILAEAVVRGWISGNAQTYYEKGIRASFSFYETHAKDYAGYLNENAVAQYLKEPLVDFTQASGTEEQIERIIMQKYLVTFYQGNWDSFYEQLRTGYPDFRRPAGTEIPKRWMYPQGEYDNNGTNVETAITRQFGAGNDKINQATWWQKKS
# Legend:
# Test in all cases: glycan array binding signal (z-score within array); higher = stronger binding
# Settings in all cases: glycan notation: IUPAC condensed, linker removed
# [1] = target: Neu5Ac(a2-6)GlcNAc(b1-4)GlcNAc(b1-4)GlcNAc
# In short: (§1)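 The binding signal is a Z-score computed within each array and averaged over linkers. Arrays of the same protein sequence at different concentrations or buffers were also averaged together. Data originate from 3228 arrays in the Consortium for Functional Glycomics database, kept only where the protein sequence was available.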
# [2] = target: Neu5Ac(a2-8)Neu5Ac
# In short: as §1
# [3] = target: Neu5Ac(a2-8)Neu5Ac(a2-3)Gal(b1-3)GalNAc(b1-4)[Neu5Ac(a2-3)]Gal(b1-4)Glc
# In short: as §1
# [4] = target: Neu5Ac(a2-8)Neu5Ac(a2-3)Gal(b1-3)GalNAc(b1-4)[Neu5Ac(a2-8)Neu5Ac(a2-3)]Gal(b1-4)Glc
# In short: as §1
# [5] = target: Neu5Ac(a2-8)Neu5Ac(a2-3)Gal(b1-4)Glc
# In short: as §1
# [6] = target: Neu5Ac(a2-8)Neu5Ac(a2-3)Gal(b1-4)GlcNAc
# In short: as §1
# [7] = target: Neu5Ac(a2-8)Neu5Ac(a2-3)[Gal(b1-3)GalNAc(b1-4)]Gal(b1-4)Glc
# In short: as §1
# [8] = target: Neu5Ac(a2-8)Neu5Ac(a2-3)[GalNAc(b1-4)]Gal(b1-4)Glc
# In short: as §1
# [9] = target: Neu5Ac(a2-8)Neu5Ac(a2-8)Neu5Ac
# In short: as §1
# [10] = target: Neu5Ac(a2-8)Neu5Ac(a2-8)Neu5Ac(a2-3)Gal(b1-4)Glc
# In short: as §1
# [11] = target: Neu5Ac(a2-8)Neu5Ac(a2-8)Neu5Ac(a2-3)[Gal(b1-3)GalNAc(b1-4)]Gal(b1-4)Glc
# In short: as §1
# [12] = target: Neu5Ac(a2-8)Neu5Ac(a2-8)Neu5Ac(a2-3)[GalNAc(b1-4)]Gal(b1-4)Glc
# In short: as §1
# [13] = target: Neu5Ac(a2-8)Neu5Ac(a2-8)Neu5Ac(a2-8)Neu5Ac(a2-3)[GalNAc(b1-4)]Gal(b1-4)Glc
# In short: as §1
# [14] = target: Neu5Ac(a2-8)Neu5Gc(a2-3)Gal(b1-4)GlcNAc
# In short: as §1
# [15] = target: Neu5Ac(b2-6)Gal(b1-4)GlcNAc
# In short: as §1
# [16] = target: Neu5Ac(b2-6)GalNAc
# In short: as §1
# [17] = target: Neu5Ac9Ac(a2-3)Gal(b1-3)GlcNAc
# In short: as §1
# [18] = target: Neu5Ac9Ac(a2-3)Gal(b1-4)GlcNAc
# In short: as §1
# [19] = target: Neu5Ac9Ac(a2-6)Gal(b1-4)GlcNAc
# In short: as §1
# [20] = target: Neu5Gc(a2-3)Gal(b1-3)GlcNAc
# In short: as §1
# [21] = target: Neu5Gc(a2-3)Gal(b1-3)[Fuc(a1-4)]GlcNAc
# In short: as §1
# [22] = target: Neu5Gc(a2-3)Gal(b1-4)Glc
# In short: as §1
# [23] = target: Neu5Gc(a2-3)Gal(b1-4)GlcNAc
# In short: as §1
# [24] = target: Neu5Gc(a2-3)Gal(b1-4)GlcNAc(b1-3)Gal(b1-4)GlcNAc(b1-2)Man(a1-3)[Neu5Gc(a2-3)Gal(b1-4)GlcNAc(b1-3)Gal(b1-4)GlcNAc(b1-2)Man(a1-6)]Man(b1-4)GlcNAc(b1-4)GlcNAc
# In short: as §1
# [25] = target: Neu5Gc(a2-3)Gal(b1-4)[Fuc(a1-3)]GlcNAc
# In short: as §1
# [26] = target: Neu5Gc(a2-6)Gal(b1-4)GlcNAc
# In short: as §1
# [27] = target: Neu5Gc(a2-6)GalNAc
# In short: as §1
# [28] = target: Neu5Gc(a2-8)Neu5Ac(a2-3)Gal(b1-4)GlcNAc
# In short: as §1
# [29] = target: Neu5Gc(a2-8)Neu5Gc(a2-3)Gal(b1-4)GlcNAc
# In short: as §1
# [30] = target: Neu5Gc(a2-8)Neu5Gc(a2-3)Gal(b1-4)GlcNAc(b1-3)Gal(b1-4)GlcNAc
# In short: as §1
# [31] = target: Neu5Gc(a2-8)Neu5Gc(a2-6)Gal(b1-4)GlcNAc
# In short: as §1
# [32] = target: Neu5Gc(b2-6)Gal(b1-4)GlcNAc
# In short: as §1
binder,measurement,setting,value
B1,glycan array binding signal (z-score),[1],-0.38
same,glycan array binding signal (z-score),[2],-0.459
same,glycan array binding signal (z-score),[3],0.329
same,glycan array binding signal (z-score),[4],1.91
same,glycan array binding signal (z-score),[5],-0.502
same,glycan array binding signal (z-score),[6],-0.843
same,glycan array binding signal (z-score),[7],0.547
same,glycan array binding signal (z-score),[8],-0.085
same,glycan array binding signal (z-score),[9],-0.171
same,glycan array binding signal (z-score),[10],-0.628
same,glycan array binding signal (z-score),[11],0.502
same,glycan array binding signal (z-score),[12],0.152
same,glycan array binding signal (z-score),[13],-0.425
same,glycan array binding signal (z-score),[14],-0.612
same,glycan array binding signal (z-score),[15],-0.202
same,glycan array binding signal (z-score),[16],-0.874
same,glycan array binding signal (z-score),[17],-0.08
same,glycan array binding signal (z-score),[18],-0.142
same,glycan array binding signal (z-score),[19],-0.14
same,glycan array binding signal (z-score),[20],-0.413
same,glycan array binding signal (z-score),[21],-0.469
same,glycan array binding signal (z-score),[22],-0.812
same,glycan array binding signal (z-score),[23],0.319
same,glycan array binding signal (z-score),[24],-0.11
same,glycan array binding signal (z-score),[25],0.477
same,glycan array binding signal (z-score),[26],-0.62
same,glycan array binding signal (z-score),[27],0.648
same,glycan array binding signal (z-score),[28],-0.287
same,glycan array binding signal (z-score),[29],-0.28
same,glycan array binding signal (z-score),[30],-0.111
same,glycan array binding signal (z-score),[31],-0.458
same,glycan array binding signal (z-score),[32],-0.174
